# Assay results as given in PubChem BioAssay AID1460 (National Center for Advancing Translational Sciences (NCATS), 2008).
# Among all 270,000 compounds or so, about 5,800 (2.1%) were called active. Inconclusive results, whose numbers are uncertain, are shown with a selection of clear calls. Calls follow the shape of the dose curve; as a rule, active = well fitted inhibition curve with a large enough effect; inconclusive = small, poorly fitted or top-dose-only effect; inactive = flat fitted curve, though single readings scatter. Where the call is inconclusive, the potency comes from a doubtful curve fit. A structure can be active in one record and inactive in another.
# Target: Microtubule-associated protein tau (Homo sapiens) (UniProt P10636)
# Chain of UniProt P10636 (P10636 whole entry, looked up): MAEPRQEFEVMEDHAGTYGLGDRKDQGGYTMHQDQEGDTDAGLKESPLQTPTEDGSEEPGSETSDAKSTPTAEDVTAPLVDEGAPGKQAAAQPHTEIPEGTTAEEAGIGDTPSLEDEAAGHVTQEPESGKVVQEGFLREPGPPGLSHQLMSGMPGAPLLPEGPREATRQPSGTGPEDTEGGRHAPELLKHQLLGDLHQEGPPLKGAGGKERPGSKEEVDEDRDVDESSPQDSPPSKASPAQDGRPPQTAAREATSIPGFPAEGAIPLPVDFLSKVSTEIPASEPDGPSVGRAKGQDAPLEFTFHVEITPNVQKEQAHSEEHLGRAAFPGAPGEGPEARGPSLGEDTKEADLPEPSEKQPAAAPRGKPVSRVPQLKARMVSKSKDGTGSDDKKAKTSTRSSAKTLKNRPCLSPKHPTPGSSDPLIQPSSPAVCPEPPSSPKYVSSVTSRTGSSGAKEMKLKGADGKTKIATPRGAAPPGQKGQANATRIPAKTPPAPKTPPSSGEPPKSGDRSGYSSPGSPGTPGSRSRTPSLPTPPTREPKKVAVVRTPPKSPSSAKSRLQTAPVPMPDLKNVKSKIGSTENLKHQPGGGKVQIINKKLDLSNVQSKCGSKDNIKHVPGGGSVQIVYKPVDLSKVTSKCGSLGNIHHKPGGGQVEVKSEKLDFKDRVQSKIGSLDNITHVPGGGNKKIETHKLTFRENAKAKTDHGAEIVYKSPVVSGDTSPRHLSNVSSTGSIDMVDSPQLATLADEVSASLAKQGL
# Assay: qHTS for Inhibitors of Tau Fibril Formation, Thioflavin T Binding; also: nearly all actives have a fitted effect of over 55% in size
# Conditions: recombinant tau K18 P301L (four-repeat tau fragment), heparin-induced fibrillization, ThT fluorescence; series mostly up to 57.4 µM; activity, negative = inhibition: at the top concentration
# Outline: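 K18 P301L tau (15 uM + 0.24 uM Alexa 594-tagged), heparin 20 uM, NaOAc pH 7, 6 h 37 C; ThT 30 uM, 1 h RT, ex 450/em 510 nm.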
# % is scaled to controls: 0 for no effect and ±100 for the full control effect; potency is read from the fitted curve at half-maximal effect; tags tell the direction and shape of the fitted curve.
SMILES,"activity, negative = inhibition",Potency
COc1ccccc1CNC(=O)Cn1c(=O)nc(-c2ccccc2)c2ccccc21,inactive: -2.69%,
CC1CC(C)(C)n2c(O)c(N=NC(N)=S)c3cccc1c32 (stereo not given),,"inconclusive: 1.58 µM [inhibitor, full curve]"
CCOC(=O)c1ccc(NC(=O)c2cc3c(s2)CCC3)cc1,,"inconclusive: 0.141 µM [inhibitor, full curve, poor fit]"
CCOCCn1c(=NC(=O)c2cc(Cl)sc2Cl)sc2cc(S(N)(=O)=O)ccc21,inactive: 2.17%,
CCOc1ccc(Cn2c3ccc(OC)cc3c3nc4ccccc4nc32)cc1,,"inconclusive: 2.51 µM [inhibitor, full curve]"
COC(=O)C(c1ccc(OC)c(OC)c1)C1c2ccccc2C=C(C)N1C(=O)OC (stereo not given),inactive: -7.83%,
CN(C)c1ccc(/C=N/c2cc(-c3ccccc3)nn2-c2ccccc2)cc1,,"inconclusive: 12.6 µM [inhibitor, partial curve]"
CCN(CC)CCSc1nnc2c3cc(F)ccc3n(CC)c2n1,inactive: -10.1%,
COc1cccc(C(=O)n2nc(-c3cccnc3)nc2NCc2ccc(F)cc2)c1,,"inconclusive: 12.6 µM [inhibitor, partial curve]"
COC(=O)c1ccc2c(=O)n(CCCCCC(=O)N3CCN(c4ccc(Cl)cc4)CC3)c(=O)[nH]c2c1,,"inconclusive: 0.355 µM [inhibitor, full curve]"
Cc1ccc(CCNC(=O)CCn2nc(-c3ccc(C)cc3)ccc2=O)cc1,inactive: -14.3%,
CCc1ccc(OCC(=O)Nc2ccc3c(c2)c2ccccc2n3CC)c(Br)c1,,"inconclusive: 3.55 µM [inhibitor, full curve, poor fit]"
N#C/C(=C\c1cc(Br)c(O)c(Br)c1)c1nc2ccccc2c(=O)[nH]1,,"inconclusive: 35.5 µM [inhibitor, single point]"
O=C(c1cc(COc2c(F)cccc2F)on1)N1CCC(c2ccncc2)CC1,inactive: -4.75%,
COc1ccc(-c2nc(SCC(=O)NCCc3ccccc3)n[nH]2)cc1,,"inconclusive: 7.94 µM [inhibitor, full curve, poor fit]"
Cc1cccc(CSc2ccc(-c3cccs3)nn2)c1,,"inconclusive: 10 µM [inhibitor, partial curve]"
CC1=CC(=C2N=C(c3ccccc3)OC2=O)C=C(C)O1,,"inconclusive: 1.12 µM [inhibitor, full curve, poor fit]"
COc1cc(/C=c2/sc3nc(-c4ccccc4)c(-c4ccccc4)n3c2=O)cc(OC)c1OC,inactive: -18%,
CC(=O)Nc1ccc(NC(=O)c2cc(-c3ccc4c(c3)OCCO4)on2)cc1,,"inconclusive: 39.8 µM [activator, single point]"
O=C(c1ccccc1)[C@@H]1[C@@H](C(=O)c2ccc(F)cc2)[C@@]2(C(=O)Nc3ccccc32)[C@H]2c3ccccc3C=CN12,,"inconclusive: 25.1 µM [inhibitor, partial curve]"
Cc1ccc(S(=O)(=O)n2nc(OC(=O)C3CCCCC3)cc2N)cc1,,"inconclusive: 14.1 µM [inhibitor, partial curve]"
CCOc1cccc(-c2cc(C(=O)NN)[nH]n2)c1,,"inconclusive: 8.91 µM [inhibitor, partial curve]"
COC(=O)CCC(=O)OC1(C)C(=O)C=C2C=C(C3CC3)N(Cc3ccccc3)C=C2C1=O (stereo not given),,active: 11.2 µM
O=C(C[n+]1ccccc1)Nc1c(Cl)cc(Cl)cc1Cl,,active: 17.8 µM

SMILES,"activity, negative = inhibition",Potency
CNC(=O)CSc1nc2c(c(=O)n(C)c(=O)n2C)n1Cc1ccc(C)cc1,inactive: -10.9%,
O=C1NN(c2ccccc2)C(=O)/C1=C/c1ccc(Sc2ccc(Cl)cc2)o1,,active: 11.2 µM
CCc1cccc(C)c1NC(=O)c1ccoc1C,inactive: -4.69%,
O=C(CN1C(=O)CCc2cc(S(=O)(=O)N3CCCCC3)ccc21)NCc1ccc(Cl)cc1,inactive: 2.77%,
CN1C(=O)C(O)(C2COC(C)(C)CC2=O)c2cc(Br)ccc21 (stereo not given),,"inconclusive: 12.6 µM [inhibitor, partial curve, poor fit]"
CC(C)C[C@H](NC(=O)OC(C)(C)C)C(=O)N/N=C/C1=Cc2ccccc2OC1C (stereo not given in full),,"inconclusive: 39.8 µM [inhibitor, single point]"
COC(=O)c1ccc(C(NC(=O)OCc2ccccc2)/C(=C/[C@@H](C)C(=O)NCc2ccc(-c3ccccc3)cc2)c2cccnc2)cc1 (stereo not given in full),inactive: 2.26%,
COC(=O)c1ccccc1NC(=O)C1CCCN(c2nnc(C)c3c(C)n(-c4ccccc4)nc23)C1 (stereo not given),inactive: 3.28%,
O=C(CN1C(=O)CC(c2ccco2)Sc2ccccc21)Nc1ccc2c(c1)OCCO2 (stereo not given),,"inconclusive: 17.8 µM [inhibitor, partial curve]"
CCOc1cccc(CNc2ccc(O)cc2)c1OCc1ccc(Cl)cc1,,active: 8.91 µM
COc1ccc(-c2nc(Cn3c(SCc4ccccc4F)nc4cccnc43)c(C)o2)cc1,,"inconclusive: 12.6 µM [inhibitor, partial curve]"
CC(=O)c1csc(COc2ccc(Cl)cc2)n1,,"inconclusive: 28.2 µM [inhibitor, single point]"
Cc1cccc(-n2c(-c3csc(C(C)C)c3)n[nH]c2=S)c1,,"inconclusive: 17.8 µM [inhibitor, partial curve, poor fit]"
Cc1cccc2sc(N(Cc3cccnc3)C(=O)C3COc4ccccc4O3)nc12 (stereo not given),inactive: -13.3%,
Cc1ccccc1S(=O)(=O)NCc1ccc(N2CCN(C)CC2)cc1,inactive: -3.32%,
CC(C)(C)NC(=O)CSc1ncnc2c1nnn2Cc1ccccc1Cl,,"inconclusive: 15.8 µM [inhibitor, partial curve, poor fit]"
Cc1ccc(C(c2nnnn2Cc2cccs2)N2CCN(C(=O)c3ccco3)CC2)cc1 (stereo not given),inactive: -7.52%,
NNC(=O)c1cc2nc(-c3cccs3)cc(C(F)(F)F)n2n1,,"inconclusive: 31.6 µM [inhibitor, partial curve]"
CC12CCC(C(=O)NC3CCCCC3)([C@H](Br)C1=O)C2(C)C (stereo not given in full),inactive: -5.1%,
O=C(C1=C[C@H](c2ccc(C(F)(F)F)cc2)C[C@H](OCc2ccc(CO)cc2)O1)N1CCN(Cc2ccccc2)CC1,,"inconclusive: 12.6 µM [inhibitor, single point]"
Cc1ccc(C(=O)C2=C(O)C(=O)N(Cc3ccccc3)C2c2cccnc2)o1 (stereo not given),inactive: -6.19%,
CCc1ccc(NC(=O)CSc2ncc(S(=O)(=O)c3cc(C)ccc3C)c(=O)[nH]2)cc1,inactive: -12.8%,
CCOC(=O)c1ccc(NC(=S)N2CCN(CCN=CC3=C(O)CC(C)(C)CC3=O)CC2)cc1,,"inconclusive: 7.94 µM [inhibitor, partial curve]"
O=C(/C(=C/O)N=Nc1ccccc1)c1ccc(Cl)cc1,,"inconclusive: 35.5 µM [inhibitor, single point]"

SMILES,"activity, negative = inhibition",Potency
CC(C)CO/N=C1/C[C@@H](O)[C@@H](O)[C@@H]2[C@@H]3C(=O)N(C4CCCCC4)C(=O)[C@H]3CC[C@H]12,inactive: -1.36% [at 11.5 µM],
CCCCn1nc(C(=O)Oc2ccc3c(C)cc(=O)oc3c2)c2ccccc2c1=O,,"inconclusive: 28.2 µM [inhibitor, partial curve]"
CCc1ccc(C(=O)NNc2ccc(C)c(Cl)c2)cc1,,"inconclusive: 17.8 µM [inhibitor, single point]"
COc1ccc(-c2c(C)c3ccc(O)c(CN4CCCC4)c3oc2=O)cc1,inactive: -2.4%,
O=C(NCCc1c[nH]c2ccccc12)[C@@H]1C[C@H]1[C@@H](NP(=O)(c1ccccc1)c1ccccc1)c1ccccc1,,"inconclusive: 0.631 µM [inhibitor, single point]"
Cc1ccc(NC(=O)c2ccc([N+](=O)[O-])cc2Cl)nc1,,"inconclusive: 22.4 µM [inhibitor, single point]"
O=C(Cn1c(-c2cccs2)cc2cc(F)ccc21)NCCCN1CCN(c2ccc(F)cc2)CC1,inactive: -4.27%,
Cc1cccc(-n2c(C)cc(/C=N\NC(=O)c3ccco3)c2C)c1,,"inconclusive: 15.8 µM [inhibitor, single point]"
Cc1cccc(N2CCN(C(=O)CN3C(=O)COc4ccc(S(=O)(=O)N5CCCC5)cc43)CC2C)c1 (stereo not given),,"inconclusive: 3.98 µM [inhibitor, single point]"
O=Cc1cnc(N2CCN(c3ccccc3)CC2)s1,,"inconclusive: 20 µM [inhibitor, partial curve]"
Cc1cc(NC(=O)c2cnc3c(-c4ccccc4)c(C)nn3c2C)ccc1Br,,"inconclusive: 7.08 µM [inhibitor, partial curve, poor fit]"
COCCCNc1oc(-c2ccccc2F)nc1C#N,,"inconclusive: 35.5 µM [inhibitor, partial curve, poor fit]"
Cc1cc(NC(=O)C(C)(C)C)cc(-c2nc3ncccc3o2)c1O,inactive: -3.46%,
Cc1ccc(C)c(N2CCN(C(=O)CS(=O)(=O)c3cccc4nsnc34)CC2)c1,inactive: -14.6%,
Cc1ccccc1NC(=O)C1C2/C=C\CCCCC21 (stereo not given),inactive: 1.48%,
O=C1CSC(=S)N1/N=C/C=C/c1ccccc1,,"inconclusive: 17.8 µM [inhibitor, partial curve]"
CC1(C)Cc2c(sc3[nH]c(=S)n(Cc4ccco4)c(=O)c23)CO1,,active: 28.2 µM
Cc1ccc(OCC(=O)N2CCN(c3nnc(-c4ccc(C)cc4)c4ccccc34)CC2)cc1,,"inconclusive: 15.8 µM [inhibitor, partial curve]"
CN(C)S(=O)(=O)N1CCC(n2c(C(F)(F)F)nc3cccnc32)CC1,inactive: -1.34%,
CCCCn1c(=O)nc2n(-c3ccc(Cl)cc3)c3ccccc3cc-2c1=O,inactive: -12.1%,
Cc1nn(-c2ccccc2)c(C)c1NC(=O)Cc1cccs1,inactive: -11.4%,
CC[n+]1c(/C=C/Nc2ccccc2)oc2ccc(OC)cc21,,"inconclusive: 39.8 µM [inhibitor, single point]"
